Laboratory results taken from PubChem BioAssay AID485281 (National Center for Advancing Translational Sciences (NCATS), 2010).
Screen size: about 350,000 compounds; about 260 (0.074%) were called active. The inconclusive results got no clear call from the source; some entries with a clear call stand among them for comparison. Calls follow the shape of the dose curve; as a rule, active = well fitted inhibition curve with a large enough effect; inconclusive = small, poorly fitted or top-dose-only effect; inactive = no such curve, though single readings can be large or run the other way. A potency beside an inconclusive call is a rough fit, not a confirmed value.

target: Ferritin light chain (Equus caballus) (UniProt P02791); experiment: qHTS Assay for Identification of Novel General Anesthetics; settings: apoferritin/1-aminoanthracene competitive binding, fluorescence; activity change, negative = displacement: at 77.5 µM (top of the series); also: nearly all actives have a fitted effect of over 20% in size
Method in brief: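 In PBS, apoferritin at 10 uM is loaded with 1-AMA from a 50% saturated solution. After 10 min of compound exposure at ambient temperature, reduced 535 nm fluorescence indicates probe displacement.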
% is scaled to controls: 0 for no effect and ±100 for the full control effect; potency is read from the fitted curve at half-maximal effect; tags tell the direction and shape of the fitted curve.

Chain of UniProt P02791 (P02791 whole entry, looked up): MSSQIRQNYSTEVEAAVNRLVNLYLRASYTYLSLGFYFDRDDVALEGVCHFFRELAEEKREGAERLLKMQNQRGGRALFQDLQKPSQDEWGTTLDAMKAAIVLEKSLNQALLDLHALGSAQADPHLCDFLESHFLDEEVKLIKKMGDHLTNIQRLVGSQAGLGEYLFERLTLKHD

Potency, active:
COc1ccc(-c2cc(C(F)(F)F)nc(-n3cncn3)n2)cc1 31.6 µM

Potency, inactive:
Cc1ccc2c(c1)Oc1ccc(NC(=O)CCl)cc1C(=O)N2, COc1cc(/C=C2/NC(=O)N(Cc3ccccc3F)C2=O)ccc1Oc1ccc([N+](=O)[O-])cn1, O=c1c2ccccc2nc(-c2ccc(Cl)cc2)n1CCCOc1ccccc1F, O=C(Nc1ccccn1)c1onc2c1CCCC2, Cc1cc(C)c(NC(=O)/C=C\C(=O)O)c(Cl)c1, CCC(C(=O)Nc1cc(OC)ccc1OC)n1c(C)c2cnn(-c3ccccc3)c(=O)c2c1C (stereo not given), Cc1ccccc1N(CC(=O)N/N=C/c1ccccc1Cl)C(=O)c1ccccc1, Cc1csc2ncnc(N3CCN(S(=O)(=O)c4cccc(C(F)(F)F)c4)CC3)c12, Cc1nnc(N/N=C/c2ccc(-c3ccccc3F)o2)n1N, COCCCNC(=O)CSc1nc2cc(C(=O)NCCOC)ccc2c(=O)n1Cc1ccc2c(c1)OCO2, Cc1cc(N2CCOCC2)n2ncc(-c3ccc(Cl)cc3)c2n1, CCOC(=O)c1c(C)[nH]c(C)c1S(=O)(=O)N(C)CC(=O)Nc1ccc(C)c(N(C)C)c1, C#CCn1c(=O)c2c(nc(/C=C/c3cccc(OC)c3)n2C)n(CCCOP(=O)(O)O)c1=O

Potency, inconclusive:
Cc1ccc(NC(=O)c2nnn(CC(=O)Nc3ccc(C)c(Cl)c3)c2N)c(C)c1 3.55 µM [inhibitor, single point], Cc1ccc(-c2cc(-c3cccs3)[nH]n2)c(O)c1 25.1 µM [inhibitor, partial curve], CC1=C(C(=O)Nc2cccc(C(=O)NC3CCCC(C)C3C)c2)SCCO1 (stereo not given) 31.6 µM [inhibitor, partial curve], Cc1nc(C#N)c(NCc2ccc3c(c2)OCO3)o1 35.5 µM [inhibitor, partial curve], COc1ccc(NC(=O)Cc2c(F)cccc2Cl)cc1 14.1 µM [inhibitor, partial curve], CN(C)c1ccc(/C=N/N2C(=S)SC(C)(C)C2N(O)C(=O)Nc2ccc([N+](=O)[O-])cc2)cc1 (stereo not given) 11.2 µM [inhibitor, partial curve], Nc1nccc(/C=C/c2c(F)cccc2Cl)n1 31.6 µM [inhibitor, partial curve], COc1ccc(-n2cnc3sc4c(c3c2=O)CCCC4)cc1 15.8 µM [inhibitor, partial curve], C=CC[C@H]1Cc2c(cccc2[N+](=O)[O-])[C@H](CC=C)N1 12.6 µM [inhibitor, partial curve], COc1ccccc1NCC(=O)c1ccc(Cl)cc1 44.7 µM [inhibitor, single point], CC(=O)c1ccc([C@@H]2C[C@]34CN(Cc5cccc(C(F)(F)F)c5)S(=O)(=O)[C@H]3C[C@H]2O4)cc1 31.6 µM [inhibitor, single point], CC(=O)Nc1cccc(OCC(=O)NCCC2=CCCCC2)c1 28.2 µM [inhibitor, partial curve], CCc1ccc(NC(=O)c2ccc3c(=O)n4c(nc3c2)CCCCC4)cc1 28.2 µM [inhibitor, partial curve], CCN(CC)c1ccc(NC(=O)CCc2nnc3ccc(N4CCCCC4)nn23)c(C)c1 14.1 µM [inhibitor, partial curve], CCC(C)(C)c1ccc(OCCCC[n+]2ccccc2)c(C(C)(C)CC)c1 17.8 µM [inhibitor, partial curve], O=C(Nc1cccc(Cl)c1)OCCOc1ccccc1 15.8 µM [inhibitor, partial curve], O=C(Oc1ccc2c(c1)OCO2)c1ccc(F)cc1Cl 28.2 µM [inhibitor, partial curve], Cc1ccc(C(=O)CSc2cc(C)nc(SCC(=O)c3ccccc3)n2)cc1 31.6 µM [inhibitor, partial curve], CC1(C)CC(=O)CC2(C1)NCC(c1ccccc1Cl)c1c2[nH]c2ccccc12 (stereo not given) 14.1 µM [inhibitor, partial curve], N#Cc1ncc(C(F)(F)F)cc1Sc1ccc(N)cc1 50.1 µM [inhibitor, single point], N/C(=N\OC(=O)C1CCCCC1)c1cccc([N+](=O)[O-])c1 25.1 µM [inhibitor, partial curve], CCN(CC)S(=O)(=O)c1cccc(C(=O)OCC(=O)N2CC(=O)Nc3ccccc32)c1 35.5 µM [inhibitor, partial curve], Cc1ccc(S(=O)(=O)NCCc2nnc3ccc(SCc4ccc(F)cc4)nn23)cc1 50.1 µM [inhibitor, single point], Cc1ccc(NC(=S)/N=C(\N)Nc2nc(C)c3ccccc3n2)cc1C 20 µM [inhibitor, partial curve], Cc1cccc(OCCC(=O)Nc2ccc(Cl)cc2F)c1 39.8 µM [inhibitor, single point], O=C(CNC(=O)c1ccccc1F)NCCOc1cccc(Cl)c1Cl 28.2 µM [inhibitor, partial curve], N#Cc1c(/N=C/c2ccco2)sc2c1CCCCC2 28.2 µM [inhibitor, partial curve], CCOC(=O)c1c(C)[nH]c(C(=O)COC(=O)C2(C)CC2(Cl)Cl)c1C (stereo not given) 31.6 µM [inhibitor, partial curve], Cc1ccc2c(CN3CCC(C)CC3)cc(=O)oc2c1 56.2 µM [inhibitor, single point], O=C(Nc1ccc(S(=O)(=O)N2CCCCC2)cc1)C1CCCCC1 35.5 µM [inhibitor, partial curve], CCCCCOc1ccc(CSc2ncn[nH]2)cc1 31.6 µM [inhibitor, single point], C=CCn1c(C)cc(C(=O)CSc2nnc(NC(C)C)s2)c1C 31.6 µM [inhibitor, partial curve], COc1cccc(N(CC(=O)NC2CCCCC2)C(=O)Cn2nnc(-c3ccc(C)o3)n2)c1 35.5 µM [inhibitor, single point], COc1cc2c(cc1OC)C1O[C@](CCCCN3C(=O)c4ccccc4C3=O)(C2)OC2=C1C(=O)CC(C)(C)C2 3.98 µM [inhibitor, partial curve], COc1ccc(NC(=O)Cn2c(=O)n(-c3ccc(C)cc3)c(=O)c3c2cnn3C)cc1 5.01 µM [inhibitor, full curve, poor fit], Cc1cc(C)n(C(=O)c2ccc(C)c(S(=O)(=O)N3CCCCC3)c2)n1 25.1 µM [inhibitor, partial curve], Cc1nc(SC(C)C)[nH]c(=O)c1Cc1ccccc1 28.2 µM [inhibitor, partial curve], Cc1ccc(C(C(=O)NCC2CCCO2)N(C(=O)c2snc(C(N)=O)c2N)c2ccc(C(C)C)cc2)o1 (stereo not given) 28.2 µM [inhibitor, partial curve], CC(C)(C)c1ccc(C(=O)NNc2cc(N3CCCCC3)nc(N3CCCCC3)n2)cc1 31.6 µM [inhibitor, partial curve], CC1CC(NC(=O)c2ncn[nH]2)CC(C)(C)C1 (stereo not given) 10 µM [inhibitor, partial curve], O=C(NNC(=O)c1ccc(Cl)cc1Cl)c1csc(-c2cccnc2)n1 50.1 µM [inhibitor, single point], Cc1ccc(N(CC(=O)Nc2ccc(S(=O)(=O)N3CCOCC3)cc2)S(C)(=O)=O)cc1C 14.1 µM [inhibitor, partial curve], Cc1ccsc1/C=C/c1ccc2cccc(O)c2n1 12.6 µM [inhibitor, partial curve], Cc1ccccc1CN1CCCOCCS1(=O)=O 28.2 µM [inhibitor, partial curve], CCc1ccc(N=C2NC(=O)/C(=C/c3cc(OC)c(O)c(OC)c3)S2)cc1 25.1 µM [inhibitor, partial curve], CCC1(c2ccccc2)NC(=O)N(CC(=O)Nc2ccc3c(c2)OCO3)C1=O (stereo not given) 35.5 µM [inhibitor, partial curve], CN1C(C(=O)c2ccccc2)=C(N)c2ccccc2S1(=O)=O 39.8 µM [inhibitor, single point], O=C(NC(=S)Nc1ccccc1N1CCCCC1)c1ccccc1 35.5 µM [inhibitor, partial curve], COc1ccc(N/N=C(/C#N)S(=O)(=O)c2nsc(C)c2C#N)cc1 25.1 µM [inhibitor, single point]

Activity change, negative = displacement, inactive:
CC12C=C(/C=C/c3ccccc3)C(C)(C1)C(c1ccccc1)CC2=O (stereo not given) 6.08% [at 15.3 µM], C=CC[C@@H]1C=C[C@@H](O/N=C\C[C@@H]2C=C[C@H](OC(C)=O)[C@H](COC(C)=O)O2)[C@@H](CO)O1 -0.433% [at 15.3 µM]
